Experimental data reported in the supplement of paper PMC10724272.
MIC of invasive clinical C. tropicalis isolates, CLSI broth microdilution (fluconazole 0.12-256 mg/L, up to 1,024 for the azole-resistant cluster and its neighbour group; other ranges not stated); higher = less susceptible. Call: susceptible or wild type [S] / resistant or non-wild type [R] by CLSI breakpoints or cut-offs; intermediate and dose-dependent carry no call. '<=' and '>=' at the end values are inferred; the source marks only some of them. Isolates are numbered anew.

compound: CC[C@H](C)C[C@H](C)CCCCCCCCC(=O)N[C@H]1C[C@@H](O)[C@@H](NCCN)NC(=O)[C@@H]2[C@@H](O)CCN2C(=O)[C@H]([C@H](O)CCN)NC(=O)[C@H]([C@H](O)[C@@H](O)c2ccc(O)cc2)NC(=O)[C@@H]2C[C@@H](O)CN2C(=O)[C@H]([C@@H](C)O)NC1=O [caspofungin]; assay: CLSI broth microdilution.

Test System | MIC
Candida tropicalis isolate 188 (ERG11 copies: 2, Erg11p: no key change) | 0.015 mg/L [S]
Candida tropicalis isolate 275 (ERG11 copies: 2, Erg11p: Y132F, S154F (heterozygous)) | 0.03 mg/L [S]
Candida tropicalis isolate 247 (ERG11 copies: 2, Erg11p: no key change) | 0.015 mg/L [S]
Candida tropicalis isolate 225 (ERG11 copies: 2, Erg11p: no key change) | 0.03 mg/L [S]
Candida tropicalis isolate 119 (ERG11 copies: 2, Erg11p: no key change) | 0.03 mg/L [S]
Candida tropicalis isolate 407 (ERG11 copies: 2, Erg11p: no key change) | 0.03 mg/L [S]
Candida tropicalis isolate 153 (ERG11 copies: 2, Erg11p: no key change) | 0.06 mg/L [S]
Candida tropicalis isolate 229 (ERG11 copies: 2, Erg11p: no key change) | 0.06 mg/L [S]
Candida tropicalis isolate 239 (ERG11 copies: 2, Erg11p: no key change) | 0.25 mg/L [S]
Candida tropicalis isolate 420 (ERG11 copies: 2, Erg11p: G464S (heterozygous)) | 0.06 mg/L [S]
Candida tropicalis isolate 198 (ERG11 copies: 7, Erg11p: Y132F, S154F (heterozygous)) | 0.03 mg/L [S]
Candida tropicalis isolate 109 (ERG11 copies: 2, Erg11p: no key change) | 0.03 mg/L [S]
Candida tropicalis isolate 134 (ERG11 copies: 2, Erg11p: no key change) | 0.06 mg/L [S]
Candida tropicalis isolate 33 (ERG11 copies: 2, Erg11p: no key change) | 0.03 mg/L [S]
Candida tropicalis isolate 249 (ERG11 copies: 2, Erg11p: no key change) | 0.03 mg/L [S]
Candida tropicalis isolate 179 (ERG11 copies: 6, Erg11p: Y132F, S154F (heterozygous)) | 0.015 mg/L [S]
Candida tropicalis isolate 68 (ERG11 copies: 2, Erg11p: no key change) | 0.03 mg/L [S]
Candida tropicalis isolate 22 (ERG11 copies: 2, Erg11p: no key change) | 0.03 mg/L [S]

Test System | MIC
Candida tropicalis isolate 56 (ERG11 copies: 2, Erg11p: Y132F, S154F (heterozygous)) | 0.06 mg/L [S]
Candida tropicalis isolate 42 (ERG11 copies: 8, Erg11p: Y132F, S154F (heterozygous)) | 0.06 mg/L [S]
Candida tropicalis isolate 203 (ERG11 copies: 3, Erg11p: Y132F, S154F (heterozygous)) | 0.12 mg/L [S]
Candida tropicalis isolate 248 (ERG11 copies: 2, Erg11p: no key change) | 0.25 mg/L [S]
Candida tropicalis isolate 184 (ERG11 copies: 2, Erg11p: no key change) | 0.03 mg/L [S]
Candida tropicalis isolate 400 (ERG11 copies: 2, Erg11p: no key change) | 0.03 mg/L [S]
Candida tropicalis isolate 81 (ERG11 copies: 2, Erg11p: no key change) | 0.03 mg/L [S]
Candida tropicalis isolate 18 (ERG11 copies: 9, Erg11p: Y132F, S154F (heterozygous)) | 0.03 mg/L [S]
Candida tropicalis isolate 359 (ERG11 copies: 2, Erg11p: no key change) | 0.03 mg/L [S]
Candida tropicalis isolate 156 (ERG11 copies: 2, Erg11p: no key change) | 0.03 mg/L [S]
Candida tropicalis isolate 40 (ERG11 copies: 2, Erg11p: Y132F, S154F (homozygous)) | 0.03 mg/L [S]
Candida tropicalis isolate 161 (ERG11 copies: 2, Erg11p: no key change) | 0.12 mg/L [S]
Candida tropicalis isolate 84 (ERG11 copies: 12, Erg11p: Y132F, S154F (homozygous)) | 0.06 mg/L [S]
Candida tropicalis isolate 429 (ERG11 copies: 8, Erg11p: Y132F, S154F (heterozygous)) | 0.03 mg/L [S]
Candida tropicalis isolate 167 (ERG11 copies: 6, Erg11p: Y132F, S154F (heterozygous)) | 0.015 mg/L [S]
Candida tropicalis isolate 364 (ERG11 copies: 2, Erg11p: no key change) | 0.03 mg/L [S]
Candida tropicalis isolate 332 (ERG11 copies: 2, Erg11p: no key change) | 0.06 mg/L [S]

compound: C[C@@H]1[C@H](O)[C@@H](C)/C=C/C=C/C=C/C=C/C=C/C=C/C=C/[C@H](O[C@@H]2O[C@H](C)[C@@H](O)[C@H](N)[C@@H]2O)C[C@@H]2O[C@](O)(C[C@@H](O)C[C@@H](O)[C@H](O)CC[C@@H](O)C[C@@H](O)CC(=O)O[C@H]1C)C[C@H](O)[C@H]2C(=O)O [amphotericin B]; assay: CLSI broth microdilution.

Test System | MIC
Candida tropicalis isolate 188 (ERG11 copies: 2, Erg11p: no key change) | 0.5 mg/L [S]
Candida tropicalis isolate 275 (ERG11 copies: 2, Erg11p: Y132F, S154F (heterozygous)) | 1 mg/L [S]
Candida tropicalis isolate 247 (ERG11 copies: 2, Erg11p: no key change) | 0.25 mg/L [S]
Candida tropicalis isolate 225 (ERG11 copies: 2, Erg11p: no key change) | 1 mg/L [S]
Candida tropicalis isolate 119 (ERG11 copies: 2, Erg11p: no key change) | 1 mg/L [S]
Candida tropicalis isolate 407 (ERG11 copies: 2, Erg11p: no key change) | 2 mg/L [S]
Candida tropicalis isolate 153 (ERG11 copies: 2, Erg11p: no key change) | 1 mg/L [S]
Candida tropicalis isolate 229 (ERG11 copies: 2, Erg11p: no key change) | 0.5 mg/L [S]
Candida tropicalis isolate 239 (ERG11 copies: 2, Erg11p: no key change) | 1 mg/L [S]
Candida tropicalis isolate 420 (ERG11 copies: 2, Erg11p: G464S (heterozygous)) | 1 mg/L [S]
Candida tropicalis isolate 198 (ERG11 copies: 7, Erg11p: Y132F, S154F (heterozygous)) | 1 mg/L [S]
Candida tropicalis isolate 109 (ERG11 copies: 2, Erg11p: no key change) | 1 mg/L [S]
Candida tropicalis isolate 134 (ERG11 copies: 2, Erg11p: no key change) | 0.25 mg/L [S]
Candida tropicalis isolate 33 (ERG11 copies: 2, Erg11p: no key change) | 1 mg/L [S]
Candida tropicalis isolate 249 (ERG11 copies: 2, Erg11p: no key change) | 1 mg/L [S]
Candida tropicalis isolate 179 (ERG11 copies: 6, Erg11p: Y132F, S154F (heterozygous)) | 1 mg/L [S]
Candida tropicalis isolate 68 (ERG11 copies: 2, Erg11p: no key change) | 0.5 mg/L [S]
Candida tropicalis isolate 22 (ERG11 copies: 2, Erg11p: no key change) | 0.5 mg/L [S]

Test System | MIC
Candida tropicalis isolate 56 (ERG11 copies: 2, Erg11p: Y132F, S154F (heterozygous)) | 0.5 mg/L [S]
Candida tropicalis isolate 42 (ERG11 copies: 8, Erg11p: Y132F, S154F (heterozygous)) | 0.5 mg/L [S]
Candida tropicalis isolate 203 (ERG11 copies: 3, Erg11p: Y132F, S154F (heterozygous)) | 0.5 mg/L [S]
Candida tropicalis isolate 248 (ERG11 copies: 2, Erg11p: no key change) | 2 mg/L [S]
Candida tropicalis isolate 184 (ERG11 copies: 2, Erg11p: no key change) | 1 mg/L [S]
Candida tropicalis isolate 400 (ERG11 copies: 2, Erg11p: no key change) | 1 mg/L [S]
Candida tropicalis isolate 81 (ERG11 copies: 2, Erg11p: no key change) | 1 mg/L [S]
Candida tropicalis isolate 18 (ERG11 copies: 9, Erg11p: Y132F, S154F (heterozygous)) | 2 mg/L [S]
Candida tropicalis isolate 359 (ERG11 copies: 2, Erg11p: no key change) | 1 mg/L [S]
Candida tropicalis isolate 156 (ERG11 copies: 2, Erg11p: no key change) | 1 mg/L [S]
Candida tropicalis isolate 40 (ERG11 copies: 2, Erg11p: Y132F, S154F (homozygous)) | 0.5 mg/L [S]
Candida tropicalis isolate 161 (ERG11 copies: 2, Erg11p: no key change) | 0.5 mg/L [S]
Candida tropicalis isolate 84 (ERG11 copies: 12, Erg11p: Y132F, S154F (homozygous)) | 0.5 mg/L [S]
Candida tropicalis isolate 429 (ERG11 copies: 8, Erg11p: Y132F, S154F (heterozygous)) | 1 mg/L [S]
Candida tropicalis isolate 167 (ERG11 copies: 6, Erg11p: Y132F, S154F (heterozygous)) | 1 mg/L [S]
Candida tropicalis isolate 364 (ERG11 copies: 2, Erg11p: no key change) | 0.5 mg/L [S]
Candida tropicalis isolate 332 (ERG11 copies: 2, Erg11p: no key change) | 0.5 mg/L [S]

compound: Nc1[nH]c(=O)ncc1F [flucytosine]; assay: CLSI broth microdilution.

Test System | MIC
Candida tropicalis isolate 188 (ERG11 copies: 2, Erg11p: no key change) | ≤ 0.06 mg/L [S]
Candida tropicalis isolate 275 (ERG11 copies: 2, Erg11p: Y132F, S154F (heterozygous)) | ≤ 0.06 mg/L [S]
Candida tropicalis isolate 247 (ERG11 copies: 2, Erg11p: no key change) | ≤ 0.06 mg/L [S]
Candida tropicalis isolate 225 (ERG11 copies: 2, Erg11p: no key change) | ≤ 0.06 mg/L [S]
Candida tropicalis isolate 119 (ERG11 copies: 2, Erg11p: no key change) | ≤ 0.06 mg/L [S]
Candida tropicalis isolate 407 (ERG11 copies: 2, Erg11p: no key change) | ≤ 0.06 mg/L [S]
Candida tropicalis isolate 153 (ERG11 copies: 2, Erg11p: no key change) | 0.12 mg/L [S]
Candida tropicalis isolate 229 (ERG11 copies: 2, Erg11p: no key change) | ≤ 0.06 mg/L [S]
